The full ranking holds about 33,000 sequences; the median of “E-score (-0.5 to 0.5)” is about -0.01, and the highest 2% start at about 0.26. The list shows a part of the results.
Biological target: Ste12 (UniProt P13574)
Assay: PBM E-score (8-mer binding enrichment) (E-score (-0.5 to 0.5)); higher = stronger / more preferred TF binding; most listed sequences are background and not binding sites
Settings: protein concentration: 200 nM; construct: GST-DNA-binding domain
Method in brief: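 Detection of bound protein used fluorescent anti-GST, with scans normalised by masliner. The proteins were GST-tagged yeast transcription factors applied at about 100-200 nM to universal all-10-mer Agilent arrays made double-stranded by primer extension. Each ungapped eight-base word, pooled with its reverse complement, was scored with an E-score from the Universal PBM Analysis Suite.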

Sequence	PBM E-score
CCCTTCCC	0.0687
CGCTGAAA	0.251
AGCTATAT	-0.0275
CATATGAG	0.221
TAGCCTAA	-0.126
GTAGGGAC	-0.242
ACTGGTGC	-0.00656
GAGGCGGC	0.0439
ACCAAGAC	0.105
ATCCGAAA	0.185
GGCAGGAA	-0.136
GTACGGTA	0.0168
ACTAAATG	-0.0189
GAGTAAAA	0.0362
AGTGCCAC	-0.323
AAAACCGG	0.246
AAGCTGGG	-0.0272
AGATGTCC	-0.112
CAGGAAGC	-0.0287
GCGTGCAA	-0.0515
AAGTGCCG	0.0249
CTAAGACC	-0.0709
CTCCATAA	-0.0873
GCTGGACA	-0.307
AAAAAACC	0.234

Sequence	PBM E-score
AGAGCCAA	0.0313
TGGGACCA	-0.101
AACGTCCA	-0.0736
AAGATCTA	-0.0681
CGGATTAG	-0.0231
TCCGCAAA	0.178
GCGGCTGA	-0.214
ATTGGCGG	-0.168
ACCCCAAG	0.0115
ATCGGACA	-0.0762
CGGAAGCA	0.0387
CCCTATAC	-0.0594
CCCGGTGC	0.0158
CGTGAATA	0.00681
GACCTTAC	0.114
TAGTGAGA	0.217
AACTCACG	0.0512
GGAGTCCC	-0.107
CCTATACG	-0.0498
TAGTTCAA	0.108
AGTGGTCG	-0.0168
ATGGAGCG	-0.0832
ATCTAACA	0.122
CCAACGGC	-0.15
CGGCGGTA	0.197

Sequence	PBM E-score
GGGAAGGA	-0.139
GTTATAGA	-0.0131
AAAAAATG	0.254
CAAAGTGC	0.00148
GATCCTAC	0.0769
CGCCACAA	0.103
ACTCCCCT	-0.0514
CATAGTAA	0.205
CCTTTGAA	0.0975
CGTGATTC	-0.108
ACGGGGGC	-0.192
TCGCCACA	-0.037
AAGGTACT	0.0324
ACTATCAC	-0.0658
GGGGCCGA	-0.157
CTGTGGCA	-0.122
TAGATCCA	-0.127
CATATATC	0.0851
AAGTACCC	-0.115
GAGGCGGA	-0.189
CCAACAGC	-0.134
ATCTGGCG	-0.0613
ACTCGTAA	0.12
CCTGTTAG	0.199
ATCGCGAT	0.0912

Sequence	PBM E-score
TGGTGACA	0.048
CCAGACAG	-0.145
ATCTCTGG	-0.236
CGCTGGTC	-0.284
AGGTGTAA	0.0911
GCTAGCAC	-0.11
TACCCATA	-0.101
CACAGGAA	-0.0364
ACAATCGG	0.0804
GCATTGAC	-0.095
GGGTGTGA	-0.0262
CCTCCGCA	-0.03
CATCCATA	0.0995
GAGCTTCC	-0.112
GGTGTTAC	-0.0374
AACACGAC	-0.104
AATCTCAA	0.155
CCACCTCA	-0.13
ACTTAGCA	-0.0684
GCACTCGC	-0.16
GCAGCGGA	-0.0871
AAGTGACA	0.0639
CACCGCAA	0.157
GCTCCTCC	-0.019
AGACAAAA	0.0746

Sequence	PBM E-score
ATGCTGGA	0.0606
CAGAATTC	0.0783
AACCCACA	-0.0351
CCCGATCA	-0.0546
CACAGTGG	-0.119
GGACCGAC	0.0392
AAGAAGAC	-0.133
AACATGGA	0.184
GGGATAGA	-0.012
GATGTGCC	-0.228
GACCTGGC	-0.227
CCGATAGC	-0.104
AGGAGTAT	-0.0896
AGTAACGG	0.0216
GGGATCAC	-0.184
CGGCCCTC	-0.321
CGCAGACC	-0.118
ATCTTCTG	0.0191
CCCGACGC	-0.0237
AGATAGCC	-0.234
GAGGCACC	-0.152
ACCTGTTG	0.0246
CGGTTCTC	-0.0663
CCGCTACG	0.0563
AAGACGCG	0.0338

Sequence	PBM E-score
ACATCCGA	0.0318
TAATGACA	0.0872
ACACAATG	0.154
CAAGGGGC	-0.0646
CTGGGCAA	-0.0128
CAATTTAA	0.2
ACTGGTAG	-0.0346
CACTTATC	0.0779
CCACGTCC	-0.343
ACGACTTC	-0.109
GGCGTACA	-0.244
ATATTCAC	-0.0138
CAGCCTCA	-0.119
ACTTTTTC	0.187
AAAATAGC	0.0345
ACGGACAA	0.0382
AGCAAACT	0.114
AGTAACTG	-0.013
CGTGTTGC	0.0401
CGATCGCG	0.128
GGCTGTTA	0.0481
GTAGAACA	-0.0742
GGCGACCA	-0.136
CACACAAG	0.0241
AACTAATT	0.0258

Sequence	PBM E-score
CGTCGTTA	-0.282
GCTTTCTA	0.182
CAATGTTA	0.0857
CGGGACAC	0.0126
ACAGCACT	-0.0837
TATACATA	0.134
CGAAGCAC	-0.0432
AAAACTGG	0.202
ACCTCGCC	-0.1
ACTGCATG	-0.0112
TCAGTTAA	0.125
GTCGGACA	-0.0157
TGGAGACA	-0.068
CAAGCAAA	0.108
CCATCTGA	0.0902
TTCAAAAA	0.298
TAAGCTTA	0.0706
CACACATC	-0.135
CCAGTGTA	-0.013
GCTTTAGA	-0.0332
AGGATATA	0.135
ACAGCATG	0.00216
AATAGCCT	-0.0125
ACTGGGGG	-0.257
AATTGCGG	0.112

Sequence	PBM E-score
GTTCGAGA	0.0223
ATAAAGCC	0.00222
CACAAGGA	0.0239
AGAATATG	0.174
GCCGTCAC	0.173
CTATTCTA	0.00544
AACTTCCT	0.0495
CAGTAGAA	0.0734
CGGGTGAC	-0.134
GCGACGCC	0.0944
CTTACAAC	0.0334
CTGAGCAG	-0.025
CGTTTACC	0.0996
GATCCAAC	-0.0314
CCCTATAG	-0.147
GTAGTAAC	-0.118
AACGCCGC	0.0583
CAGAACTC	-0.0265
AATGATGG	0.112
AATTCCCG	0.0685
AGGGACTA	-0.124
ATGGTGAC	-0.0986
AGGTATCC	-0.129
ACATACAC	0.0702
CAAGAATG	0.196

Sequence	PBM E-score
GATAACAC	0.108
ATCAGGGC	-0.308
GCGTGCGA	-0.107
GGAGGAAA	-0.062
GTGCTGCA	-0.143
CCCGGAGA	0.0998
CGTGAAAA	0.22
GCTGACGA	-0.106
CTTCATCA	-0.0587
CGATAGGC	0.0174
GTCTGCAC	-0.0368
TAGCTGAA	-0.00389
AGCTTAAG	-0.0476
AAAGAGCC	-0.192
ATGGCCTG	-0.246
CTTTGCTC	-0.0408
ATGAGATG	-0.0425
TACACTAA	-0.0223
ACATCACG	-0.0724
ACCGCCCC	0.348
CGATCAAC	-0.0827
GCTATATA	0.0653
CCCCGCTC	-0.0318
ACGGTCCA	-0.133
GGACACGA	-0.247

Sequence	PBM E-score
GGGTTTGA	0.18
ATTTCGGA	0.181
GTGTGTCA	0.321
GAAACCCC	0.204
AGGGCTGC	-0.199
CATCAGAA	0.0441
CAGCGATG	-0.0741
GAGCCAAC	-0.0708
GAGTTGAC	-0.124
ACCGGACT	-0.0995
CAGTCCTA	-0.345
AACTAGGC	-0.0922
CGCTTCCG	-0.0583
AGTTCCCG	-0.042
AGCAAGAA	0.0495
AAGGACCA	-0.178
ATATCGCA	-0.249
AGCGGGAT	0.0287
CGTGGTCA	0.00714
ATAAAATG	0.142
AATATTAC	0.118
ACTCTGGC	-0.0309
CAGTATCC	-0.0126
CGGATAAC	0.064
GAACCGAC	0.0126

Sequence	PBM E-score
GGGCGCAC	-0.163
CTCCCTAC	-0.0815
ATTGACGC	-0.0124
ACTTCGAA	0.0671
AGAGTCAT	0.0713
GCGCGTTA	-0.0248
AGCGTCAA	-0.00106
ATCATCGG	0.0208
ACCCCCAC	-0.222
TAAGGGGA	-0.0231
ATAACAAT	-0.00168
CGGTATTA	0.129
GGAAGAGA	-0.0805
CCGCCAGC	0.119
GAACGTCA	-0.212
AGGATGAC	-0.253
ATGGTCGA	-0.134
ACACGTGT	-0.0438
ACAGATGG	-0.086
GGAGACTA	-0.0305
CCGGGAGG	0.128
CGAAATGA	0.0829
CAGAAGGC	-0.0975
CTGTTGGA	0.0959
AGACAGAA	0.0471

Sequence	PBM E-score
ATTGAGTA	0.216
ATTTCATG	-0.0384
GATATGGC	-0.15
AGACCAAT	-0.0443
AGGGCGGG	0.296
TACTTGAA	0.0634
GCAGTACA	-0.0964
AAGGCCAG	0.128
AGCGTACT	-0.145
CTACCAAG	-0.135
ATATGTTG	0.0943
CAACGAAG	-0.219
GGAAATCA	-0.016
CCCCAAAG	0.00872
AGGTGCAA	-0.0336
GTCGAGAA	0.00889
ATGGACAG	-0.0851
ATATCTCC	0.15
GTGAAGAA	0.14
ATTAAAAG	0.137
ATAAAGAC	-0.0448
ACTTATAG	-0.0177
AAGCGAGT	0.117
AAACGCGA	0.24
GTCGCGTA	0.0487

Sequence	PBM E-score
ATCGCCAT	-0.0463
ATCCGCTC	-0.0924
CATCTTGG	-0.0368
CATCGGCA	0.0301
AGTGATAT	-0.143
CGAAGTAC	-0.174
GAAGGGGC	-0.0985
TGAGAACA	0.0626
ACACACAC	0.0546
CGAGAATA	0.155
GGATTACA	-0.0011
ACCGCAAA	-0.0527
ATTCGGGA	-0.141
CCATCGTA	-0.0808
CCCGGGAA	0.0209
AATTCTTA	0.112
CTGGAGGC	-0.077
AGTTTATC	0.162
CTTTGCCA	0.0679
ATTGCGGC	0.141
ATTATCTG	-0.00547
GACAGACA	0.102
AACATGTC	0.041
ATTAACGA	0.175
CGACAACG	-0.13

Sequence	PBM E-score
AACTGCGG	0.0169
CCGCCGAG	-0.114
ATCTTACG	0.00283
AAGTTTGG	0.158
AATAGAGG	-0.0453
AAATCGCT	-0.0741
CAGTAGCC	-0.132
AGAGTATG	-0.0802
CGATACAG	0.0754
CCAATTTC	0.0327
AAGATCGC	-0.215
CCGGGAAG	-0.0322
CCGTCCGA	-0.218
ACACGTCC	-0.112
CCAGTGGG	-0.175
GGTACTTA	-0.133
ACCTTTGC	-0.0226
ATAGAGTC	-0.217
CATTGACG	0.0435
